Measurements taken from the RNAGym collection of RNA variant scans (doi:10.1073/pnas.2313332121).
Variants at the background level are over-represented here.

B1: TPR 5TU (parent)
chain: GGAUCUUCUCGAUCUAACAAAAAAGACAAAUCUGCCACAAAGCUUGAGAGCAUCUUCGGAUGCAGAGGCGGCAGCCUUCGGUGGCGCGAUAGCGCCAACGUUCUCAACUAUGACACGCAAAACGCGUGCUCCGUUGAAUGGAGUUUAUCAUG

Variants of: B1
Test: polymerase ribozyme fitness, log enrichment relative to wild type (log ratio); higher = more active; in vitro selection for triplet polymerase activity
Procedure, shortened: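 Frozen incubation at −7 °C formed the core of a single, triplicate in vitro selection round applied to PCR-built, transcribed mutant libraries of each subunit of a heterodimeric triplet polymerase ribozyme. Extended constructs were gel-excised, captured with streptavidin beads and amplified by RT-PCR, and input and output libraries were Illumina-sequenced with a filter of ≥10 input reads and ≥1 read per output. Fitness is the logarithm of genotype enrichment relative to wild-type enrichment, with inverse-variance-weighted replicate averaging, and the logarithm is base 2.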

Polymerase ribozyme fitness (log ratio), ≤ -4.2:
GGAUCUUCUCAAUCUAACAAAAAAGACAAAUCUGUCACAAAGCUUGAGAGCAUCGUCGGAUGCAGAGGCGGCAGCCUUCGGUGAAGCGAUAGCGCCAACGUCCUCAACUAUGACACGCAAAACGCGUGCUCCGUUGAAUGGAGUUUAUCAUG
GGAUCUUCUCAAUCUAACAAAAAAGACAAAUCUGCCACAAAGCUUGAGAGUAUCUUCGGAUGCAGAGGCGGCAGCCUUCGGUGGCUCGAUAGCGCCAACGUUCUCAAUUAUGACACGCUAAACGCGUGCUCCGUUGAAUGGCGUUUAUCAUG
GGAUCUUCUCAAUCUAACAAAAAAGACAAAUCUGCCACAAAGCUUGAGAGCAUAUGAGGAUGCAGAGGCGUCAGCCUUCGGUGGCGCGAUGGCGUCAACGUUCUCAACUAUGACACGCAAAACGCGUGCUCCGUUGAAUGGAGUUUAUCAUG
GGAUCUUCUCAAUCUAACAAAAAAGACAAAUCUGCCACAAAGCUUGAGAGCAUUUUCGGAUGCAGGGGCGGCAGCCUUCGGUGGCGCGAUAGCGCAAACGUUCUCAACUAUGACACGCAAAACGCGUGCUCCGUUAAAUGGAGUUUAUCAUG
GGAUCUUCUCAAUCUAACAAAAAAGACAAAUCUGCCACAAAGCUUGAGAGCAUCUUCGGAUGCAGAGGCGGCAGCGUUCGGUGGCGCGAUAGAGCCAACGUUCUCAACUAUGACACACAAAACGCGUGCUCCGUUGAAUGGAGUUUAUCAUG
GGAUCUUCUCAAUCUAACAAAAAAGACAAAUCUGCCACAAAGCUUGAGAGCAUCUUCGGAUGCAGAGGCGGCAGCCUUCGGUGGCGAGAUAGCGCCAACGUUCUCAACUAUGACACGCAAAACGCGUGCUCCGUUGAAUGGAGUUUAUCAUG
GGAUCUUCUCAAUCUAACAAAAAACACAAAUGUGCCACAAAGCUUGAGAGCAUCUUCGGUUGCAGAGGCGGCAGCCUUCGGUGGCGCGAUAGCGCCAACGUUCUCAACUAUGACACGCAAAACGCGUGCUCCGUUGAAUGGAGUUUAUCAUG
GGAUCUUCUCAAUCUAACAAAAAAUACAAAUCUGCCAUAAAGCUUGAGAGCAUCUUCGGAUGCAGAGGCGGCAGCCUUCGGUGGCACGAUAGCGCCAACGUUCUCAACUAUGACACGCAAAACGCGUGCUCCGUUGAAUGGAGUUUAUCAUG
GGAUCUUCUCAAUCUAACAAAAAAGACAAAUCUGCCACAAAGCUUGAGACCAUCUUCCGAUGCAGAGGCGGCUGCUUUCGGUGGCGCGAUAGCGCCAACGUUCUCAACUAUGACACGCAAAACGCGUGCUCCGUUGAUUGGAGUUUAUCAUG
GGAUCUUCUCAAGCGAACAAAAAAGACAAAUCUGCCACAAAGCUUGAGAGCAUCUUCGGAUGCAGAGGCGCCAGCCUUCGGUGGCGCGAUAGCGGCAACGUUAUCAACUAUGACACGCAAAACGCGUUCGCCGUUGAAUGGAGUUUAUGAUG
GGAUCUUCUCAAUCAAACAAAAAAGACAAAUCUGCAACAAAGCUUGAGAGCAUCUUCGGAUGCAGAGGCGGCAGCCUUCGGUGGCGCGAUAGCGCCUACAUUCUCCACUAUGGCACGCUAAACGCGUGCUCCGUUGAAUGGAGUUUAUCAUG
GGAUCUUCUCAAUCUAACAAAAAAGACAAAGCUGCCACAAAGCUUGAGAGCAUCUUCGGAUGCAGAGGCGGCAGCCUUCGGUGGCGCGAUAGCGCGAACGUUCUCAACUAUGACACGCAAAACGCGUGCUCCGUUGAAUCGAGUUUAUCAUG
GGAUCUUCUCAAUCUAACAAAAAAGACAAAUCUGCCACAAAGCUAGAGAGCAUCUUCGGAUGCAGAGGCGGCAGCCUUCGGUGGCGCGCUGGCGCCAACGUUCUCAACUAUGACACGCAAAACGCGUACUCCGUUGAAUGGAGUUUAACAUG
GGAUCUUCUCAAUCUAACAAAAAAGACAAAUCUGCCACAAAGCUUGAGAGCAUCGUCGGAUGUAGAGGCGGCAACCAUCGGUGGCGCGAUAGGGCCAACGUUCUCAACUAUGACUCGCAAAACACGUGCUCCGUUGAAUGUAGUUUAUCAUG
GGAUCUUCUCAAUCUAACAAAAAAGACAAAUCUGCCACAAAGCUUGAGAGCAUCUUCGGAGGCAGAGGCGGCAGCCUUCGGUGGCGCGAUAGCGUCGACGUUCUAUACUAUGACACGCAAAACGCGUGCUCCGUUGAAUGGAGUUUAUCAUG
GGAUCUUCUCCCUCUAACAAAAAAGACAAAUCUGGAACAAAGCUUGAGAGCAUCUUCGGAUGCAGAGGCGGCAGCCUUCGGUGGCGCGAUAUCGCUAACGUCCUCAACUAUGACACGCAAAACUCGUGCUCCGUUGAAUGGAGUUUAUCAUG
GGAUCUUCUCCAUCUACCAAAAAAGACAAAUCUGCCACAAGGCUUAAGAGCAUCUUCGGAUACAGAGGCGGCAGCCUUCGGUGGCGCGAUAGCGCCAACGUUAUCAACUAUGACACGCAAAACGCGUGCUCCGUGGAAUGGAGUUUAUCAUG
GGAUCUUCUCCAUCUAACCAAAAAGACAAAUCUGCCACAAAGCUUGAGAGCAUCUUCGGAUGCAGAGGCGGCAGCCUUAGGUGGCGCGAUAGCGCCAACGUUCUCAACUAUGACACGCAAAACGGGUGCUCCGUUGAAUGGAGUUUAUCAUG
GGAUCUUCUCCAUCUAACGAAAAAGACAAAUCUGCCACAAAGCUUGAGACCAUCUUCGUAUGCAGAGGCGGCAGCCUUCGGUGGCGCGAUAGCACUAACGUUCUCAACUAUGACACGCAAAACGCGUGCUACGUUGAAUGGAGUUUAUCAUG
